Values joined by “and” are separate entries in the source; they are usually repeats but may differ in a detail not shown here. Identical values can stand only once. Out of some 340,000 compounds screened, about 12,000 (3.5%) were called active. Inconclusive means that the source gave no clear call. Such entries were picked first, then a sample of the others. The call rests on the fitted dose curve; in most records, active means well fitted inhibition curve with a large enough effect; inconclusive means small, poorly fitted or top-dose-only effect, or another doubt; inactive means no such curve, though single readings can be large or run the other way. No potency is given beside an inconclusive call; the fits are too rough.
experiment: qHTS Assay for Inhibitors of Hepatitis C Virus (HCV); conditions: Huh7.5.1 HCVcc-Cre (HCVcc is cell-culture hepatitis C virus) infection, luciferase reporter, 44 h; activity change, negative = inhibition: at 41.8 µM (top of the series) unless noted
How it was run: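 Seed cells (1,000/well) for 4 h; treat with compound and infect with HCVcc-Cre, moi about 0.5. Incubate 44 h, then detect luciferase activity.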
On the % scale 0 is the no-effect control and ±100 the full control effect; potency means the concentration at half of the fitted maximal effect; tags describe the fitted curve by direction and shape.

SMILES | Potency | activity change, negative = inhibition
O=C(c1cccc(S(=O)(=O)N2CCCCC2)c1)N(CCc1ccccc1)Cc1ccccc1 | inconclusive [inhibitor, single point] | 
Cc1cccc(C(=O)N[C@H](C(=O)Nc2ccc(C)c(S(=O)(=O)N3CCOCC3)c2)C(C)C)c1 | inconclusive [inhibitor, partial curve] | 
CCOC(=O)c1c(C)[nH]c(C(=O)OCC(=O)N(CC)c2c(N)n(Cc3ccccc3)c(=O)[nH]c2=O)c1C | inconclusive [inhibitor, partial curve] | 
CCCCCC(=O)NNC(=O)c1c(O)c2ccccc2n(CC)c1=O | inactive | 
O=C(NCc1ccco1)c1ccc(COc2ccccc2Cl)cc1 | active: 11.2 µM | 
O=C(Nc1ccc(N2CCN(C(=O)c3ccc(Cl)cc3)CC2)cc1)c1cccs1 | inactive | 
CC(C)(C)c1ccc(OCCNC(=O)Cc2ccc(F)cc2)cc1 | inconclusive [inhibitor, single point] | 
CC(=O)c1ccc(OCC(O)COc2ccc(C(C)=O)cc2)cc1 | inconclusive [inhibitor, single point] | 
CCOC(=O)C1CCN(C(=O)c2cccc(C(=O)N3CCC(C(=O)OCC)CC3)c2)CC1 | inactive | 
Cc1cc(C(=O)OCC(=O)Nc2ccccc2C(F)(F)F)on1 | inactive | 
O=C1c2ccccc2C(=O)N1CCc1csc(-c2cccc(F)c2)n1 | inconclusive [inhibitor, single point] | 
CCCCNC(=O)C(C)N(CCN(C)C)C(=O)CCCN1C(=O)NC(c2ccc(Cl)cc2)C(C(=O)OCc2ccccc2)=C1C (configuration not stated) | active: 11.2 µM | 
CSc1ccc(CN2CCC(N3CC(C)OC(C)C3)CC2)cc1 (configuration not stated) | inconclusive [inhibitor, single point] | 
CC(=O)c1nn(-c2ccccc2)cc1C(=O)c1ccc(C)cc1 | inconclusive [inhibitor, full curve, poor fit] | 
COc1ccc2[nH]c3c(C)c4cc[n+](C)cc4c(C)c3c2c1 | inconclusive [inhibitor, partial curve] | 
C=CCn1c(Oc2ccccc2)nc2c1c(=O)n(C)c(=O)n2C | inactive | 
COc1cc2sc(-c3ccc(S(C)(=O)=O)cc3)c(C(=O)NCc3ccc(C)o3)c2cc1OC | inconclusive [inhibitor, partial curve] | 
Cc1ccc(NC(=O)CSc2nc3ccccc3c(=O)n2CCCN2CCCCC2)cc1C | active: 14.1 µM | 
COc1ccc(N2CCN(C(=O)CCS(=O)(=O)c3ccc4c(c3)NC(=O)C(C)S4)CC2)cc1 (configuration not stated) | inconclusive [inhibitor, single point] | 
COc1cc(Cl)c(C)cc1NC(=O)CSc1nnc(-c2ccco2)n1CC(C)C | inconclusive [inhibitor, partial curve] | 
O=C(O)c1ccccc1Cc1nc2cc(Cl)ccc2c(=O)[nH]1 | inconclusive [inhibitor, single point] | 
COCCCNC(=O)C[C@H]1C[C@H](C(=O)N2CCOCC2)[C@@]2(C)c3[nH]c4cc(CCC(=O)N(C)C)ccc4c3CCN2C1=O | inactive | 
Cc1ccccc1C(=O)NC(=S)Nc1ccccc1N1CCCC1 | inconclusive [inhibitor, single point] | 
COc1ccc(NC(=O)Cn2nnc(-c3ccccc3NC(=O)C3CC3)n2)cc1 | inconclusive [inhibitor, single point] | 

SMILES | Potency | activity change, negative = inhibition
Clc1cccc(CN2CCc3c([nH]c4ccccc34)C2)c1Cl | inconclusive [inhibitor, single point] | 
COc1cccc(OC)c1C(=O)NC(=S)Nc1ccc2c(c1)C(=O)N(C)C2=O | inactive | 
O=C(CCC(=O)NC1CCCCC1)N/N=C/c1ccncc1 | inactive | 
COc1ccc(Cl)cc1NC(=O)CN(C)C(=O)CCCc1c[nH]c2ccccc12 | inconclusive [inhibitor, single point] | 
COc1ccccc1N(C)S(=O)(=O)c1ccc(C(=O)Nc2nccs2)cc1 | active: 11.2 µM | 
CCOC(=O)c1cc([N+](=O)[O-])sc1NC(=O)CC | inconclusive [inhibitor, partial curve] | 
C=CCNC(=O)c1ccccc1NC(=O)C1COc2ccccc2O1 (configuration not stated) | inconclusive [inhibitor, partial curve] | 
CCN=c1scc(-c2ccc3c(c2)NC(=O)CO3)n1N=C1CCCC1 | active: 10 µM and active: 15.8 µM | 
O=C(NCc1ccccc1)c1sc(=S)n2c1[nH]c(=O)c1ccccc12 | inactive | 
CCC(C)c1ccccc1NC(=O)COC(=O)C1=NN(c2ccccc2)C(=O)CC1 (configuration not stated) | inactive | 
CCC(=O)N1CCc2cc(S(=O)(=O)N3CCc4ccccc4C3)ccc21 | inactive | 
CCNc1nc2nc3ccc(C)cn3c(=O)c2cc1C(=O)NCC1CCCO1 (configuration not stated) | inactive | 
O=c1c(-c2ccc(Cl)cc2)coc2c(CN3CCOCC3)c(O)ccc12 | inactive | 
C=C1CCC(O)C2(C)CCC3C(C)C(=O)OC3C12O (configuration not stated) | inactive | 
COc1ccc(OC)c(-c2csc(NC(=O)c3ccc(F)cc3)n2)c1 | inconclusive [inhibitor, full curve] | 
CC(C)(C)OC(=O)CNC(=O)c1[nH]cnc1C(=O)N[C@@H](CCCCNC(=O)OC(C)(C)C)C(=O)OC(C)(C)C |  | inactive: 11% [at 8.37 µM]
COc1ccc(OC)c(Nc2ncnc3sc(-c4ccccc4)cc23)c1 | inconclusive [inhibitor, single point] | 
CNc1nc(N2CCc3ccccc32)ncc1F | active: 3.16 µM | 
Cc1nc2ccccc2c(=O)n1-c1ccc(C(=O)O)cc1 | inactive | 
CCn1cc(C(=O)NCCCN(C)C)c(=O)c2cc(F)c(N3CCN(C)CC3)cc21 | inactive | 
CSc1ncccc1C(=O)N1CCCC(C(=O)c2cc(F)ccc2F)C1 (configuration not stated) | inactive | 
COC(=O)c1ccc(NC(=O)N2CCCC(C(=O)c3ccccc3OC)C2)cc1 (configuration not stated) | inconclusive [inhibitor, single point] | 
COc1ccc(Nc2nc(N)nc(CN3CCOCC3)n2)cc1 | inactive | 
Cc1ccc(Nc2c([N+](=O)[O-])ccc3c2=NC2(CCCCC2)N=3)cc1 | inconclusive [inhibitor, partial curve] | 

SMILES | Potency | activity change, negative = inhibition
Cc1coc2cc3oc(=O)c(CCC(=O)NC4CC4)c(C)c3cc12 | inconclusive [inhibitor, partial curve] | 
COc1ccc(C(=O)NC(CCSC)C(=O)NCc2nnc3ccccn23)cc1 (configuration not stated) | inactive | 
CN(c1ccc(C(=O)NCCSCc2ccc(Cl)cc2)cc1)S(=O)(=O)c1ccccc1 | inconclusive [inhibitor, single point] | 
Cc1cc(C)c(C#N)c(N2CCN(Cc3ccccc3)CC2)n1 | inconclusive [inhibitor, single point] | 
Oc1ccc(-c2cnns2)c(O)c1 | inconclusive [inhibitor, single point] | 
CCCCCOc1ccc(NC2=CC(=O)CCC2)cc1 | inactive | 
O=C(CN1c2ccccc2Sc2ccccc21)NNC(=O)Nc1ccc(Cl)cc1 | inconclusive [inhibitor, partial curve] | 
CCOC(=O)N1CCC(n2c(SCC(=O)N3CCC(C)CC3)nc3ccccc3c2=O)CC1 | active: 12.6 µM | 
CCC(=O)c1ccc(N2CCN(C(=O)c3ccccc3F)CC2)c(F)c1 | inconclusive [inhibitor, single point] | 
c1ccc2c(c1)ccc1[nH]c3c(c12)CCCC3 | inconclusive [inhibitor, single point] | 
COc1ccc(CCNC(=O)Nc2ccc([N+](=O)[O-])cc2)cc1OC | inconclusive [inhibitor, single point] | 
O=C(O)c1cn(-c2ccc(F)cc2)c2cc(N3CCNCC3)c(F)cc2c1=O | inactive | 
CCCCNC(=O)c1onc(CSc2ccc(F)c(F)c2)c1C(=O)O | inactive | 
CCOC(=O)c1[nH]c(C)c(C(=O)Nc2ccccc2F)c1C | inconclusive [inhibitor, partial curve] | 
Cc1noc(C)c1NC(=O)Nc1ccc2c(c1)C(=O)N([C@H](C)CO)C[C@H](C)[C@@H](CN(C)S(=O)(=O)c1c(C)noc1C)O2 | inconclusive [inhibitor, single point] | 
CCN(CCN1CCCC1)C(=O)c1cc(COc2ccccc2SC)on1 | inactive | 
O=C1CCc2cc(NS(=O)(=O)c3ccc(F)cc3)cc3c2N1CC3 | inconclusive [inhibitor, single point] | 
CCCN(CCC)CCN1C(=O)C2C(C(=O)Nc3ccc(C)cc3)C3C=CC2(O3)C1C(=O)NC1CCCCC1 (configuration not stated) | inconclusive [inhibitor, full curve] | 
CCn1c(SCC(=O)Nc2ccc(Cl)cc2)nc2nc3c(cc2c1=O)CCCC3 | inconclusive [inhibitor, partial curve] | 
COc1ccc(NC(=O)c2cc(-c3cc(C)ccc3O)n[nH]2)cc1Cl | inconclusive [inhibitor, single point] | 
COC(=O)c1cc2c(C)c(C)c3ccccn3c-2c1C(=O)OC | inconclusive [inhibitor, partial curve, poor fit] | 
O=Cc1ccccc1-c1cn(CCCOCc2ccccc2)nn1 | inactive | 
Cn1c(=O)c2c(nc(N3CCCCCC3)n2CC(O)COc2ccccc2)n(C)c1=O (configuration not stated) | inactive | 
COc1ccc(/C(C)=N\NS(C)(=O)=O)c(OC)c1 | inactive | 

From PubChem BioAssay AID651820 (National Center for Advancing Translational Sciences (NCATS), 2012)
